# Assay results: PMC6919601, “Identification of Plasmodium dipeptidyl aminopeptidase allosteric inhibitors by high throughput screening” (PLoS ONE, 2019)
# About 230 (0.21%) of roughly 110,000 compounds showed an effect of 50% or more. The list shows a part of the results. Where a SMILES comes first, the peptide text is derived from it. [ ]: non-standard residue; d: D form. The star is where a group is joined. ξ: configuration not given here. Cbz = O=C(OCc1ccccc1)*; Boc = CC(C)(C)OC(=O)*; ξK = NCCCCC(N)C(=O)O
# Target: DPAP1 (Plasmodium falciparum, UniProt Q8IIJ9)
# Sequence (Q8IIJ9 whole entry, looked up): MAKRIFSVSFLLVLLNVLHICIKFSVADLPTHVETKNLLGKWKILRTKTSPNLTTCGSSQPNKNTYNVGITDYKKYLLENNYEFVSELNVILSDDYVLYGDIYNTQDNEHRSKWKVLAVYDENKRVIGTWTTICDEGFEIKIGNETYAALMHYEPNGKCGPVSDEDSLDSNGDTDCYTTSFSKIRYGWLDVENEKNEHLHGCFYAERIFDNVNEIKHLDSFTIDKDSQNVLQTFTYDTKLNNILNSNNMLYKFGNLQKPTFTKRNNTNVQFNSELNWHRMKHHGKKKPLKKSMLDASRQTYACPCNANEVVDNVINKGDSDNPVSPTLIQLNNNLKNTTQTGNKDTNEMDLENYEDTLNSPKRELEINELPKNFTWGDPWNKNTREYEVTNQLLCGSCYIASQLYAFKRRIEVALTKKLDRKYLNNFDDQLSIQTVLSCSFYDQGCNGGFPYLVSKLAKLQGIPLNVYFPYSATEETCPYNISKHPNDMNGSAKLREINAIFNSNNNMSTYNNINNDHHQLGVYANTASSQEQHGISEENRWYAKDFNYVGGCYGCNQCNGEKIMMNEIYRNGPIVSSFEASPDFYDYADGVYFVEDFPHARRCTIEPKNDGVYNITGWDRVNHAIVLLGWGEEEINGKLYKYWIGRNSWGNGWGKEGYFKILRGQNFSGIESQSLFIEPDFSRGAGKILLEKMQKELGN
# Assay: primary screen, percent inhibition; read by cleavage of a fluorogenic dipeptide substrate; higher = more effect of the substance
# Design: species or system P. falciparum D10 trophozoite lysates; single well
# 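Note: 30 min substrate incubation versus DMSO and 10 µM JCP410 controls.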
row,Structure (SMILES),% Inhibition @ 10 uM
1,Cc1sc2ncn3nnnc3c2c1-c1ccc(Cl)cc1,-1.6%
2,Cc1ccccc1CCNCc1ccc(C(=O)O)s1,0.124%
3,CC1CCCCC1NCc1c(C(=O)O)n(Cc2ccccc2)c2ccccc12 (stereo not shown),3.54%
4,CCc1nonc1NC(=O)COc1ccc(Cl)c(C)c1,1.67%
5,Cc1cc(C)c2oc(C(=O)Nc3nnc(C(C)C)s3)cc(=O)c2c1,53.6%
6,CCOCCCNC(=O)C1CCN(c2nnc(N3CCCC3=O)s2)CC1,2.07%
7,CCCc1[nH]nc2c1C(c1ccc(Br)c(F)c1)C(C#N)=C(N)O2 (stereo not shown),-4.4%
8,CC(C)(C)OC(=O)NC(CCCCNC(=O)OCc1ccccc1)C(=O)NCC(=O)NCC(=O)O (stereo not drawn) (Boc-[ξK](Cbz)-Gly-Gly-OH),-3.64%
9,Cc1cc(C(=O)NC(C)c2ccccc2)n(-c2ccccc2)n1 (stereo not shown),1.55%
10,C/C=C/N1C(=S)NC2(O)c3ccccc3C(=O)C12O (stereo not shown),-2.87%
11,O=C(Nc1nnc(Cc2ccc(Cl)cc2)s1)C1c2ccccc2Oc2ccccc21,5.17%
12,c1ccc(CCN2CN(Cc3cccnc3)c3nc4ccccc4n3C2)cc1,4.33%
13,CC(C)CNS(=O)(=O)c1ccc(OCC(=O)Nc2cccc3ccccc23)c(Cl)c1,1.17%
14,COc1cccc(N/C=C(/C#N)c2nc(-c3ccc(Cl)cc3)cs2)c1,-9.12%
15,CCn1c(C)c(C)c2cc(C(=O)NCCCN3CCc4ccccc4C3)ccc21,-7.04%
16,CCOc1ccc2[nH]c(SCC(=O)Nc3cc4c(cc3C(C)=O)OCO4)nc2c1,4.81%
17,Cc1ccc(OCCOc2ccc(/C=C3/C(=N)N4C=CSC4=NC3=O)cc2Cl)cc1,-3.28%
18,COc1ccc(Cl)cc1S(=O)(=O)N1CCC(C(N)=O)(N2CCCCC2)CC1,-5.33%
19,O=C(NCc1ccccc1)NC1c2ccccc2CSc2ccccc21 (stereo not shown),1.39%
20,COc1ccc(CCNC(=O)Cc2c(C)c3c(O)cc(C)cc3oc2=O)cc1,0.895%
21,Cc1ccccc1CNc1nc2nc(C)c(C)c(O)n2n1,1%
22,O=C(Cc1noc2ccccc12)NCc1ccccc1,-7.32%
23,CCOc1ccccc1N1CCN(Cc2ccco2)CC1,-4.61%
24,C=CCc1ccc(OCc2ccc(C(=O)O)o2)c(OC)c1,-5.24%
25,CC1=CCC2CC1C(c1ccc(N(C)C)cc1)OC2(C)C (stereo not shown),4.6%

row,Structure (SMILES),% Inhibition @ 10 uM
1,Cc1ccccc1OCC(=O)Nc1ccc(S(=O)(=O)N2CCCCC2)cc1,2.44%
2,CC(C)c1ccc(Nc2nc(Cl)nc(N3CCCCC3)n2)cc1,-5.44%
3,CCOc1cccc(NC(=O)c2cccc(Cl)c2)c1,-0.116%
4,CC12CN3CC(c4ccccc4)(CN(C1)C3c1ccccc1O)C2=O (stereo not shown),-2.91%
5,Cc1cc(O)nc(SCc2nc3ccccc3c(=O)n2-c2ccccc2C)n1,2.27%
6,CS(=O)(=O)C1=NSC2=NC(=O)/C(=C\c3ccc(OCc4ccccc4)c(Cl)c3)C(=N)N21,3.28%
7,O=C(O)c1ccc(N2C(=O)C3C4C=CC(O4)C3C2=O)cc1 (stereo not shown),-3.09%
8,COc1ccc(CCNS(=O)(=O)c2ccc3ccccc3c2)cc1OC,0.146%
9,O=C(COc1ccccc1)N1CCN(c2ccccc2F)CC1,-0.69%
10,O=S1(=O)CCC(NC(=S)NC2CCS(=O)(=O)C2)C1 (stereo not shown),-11.3%
11,CC(C)CC(C(=O)O)N1C(=O)C2C3CC(C2C1=O)C1C(c2ccccc2)c2sc(O)nc2SC31 (stereo not shown),-5.36%
12,COc1ccc(S(=O)(=O)N(CC(=O)N2CCOCC2)C2CCCCC2)cc1OC,1.25%
13,Cc1c2c(cc3c1oc(=O)c1ccccc13)CN(Cc1ccc3c(c1)OCO3)CO2,2.54%
14,Cc1nn(CC(O)Cn2c3c(c4ccccc42)CCN(C)C3=O)c(C)c1Br (stereo not shown),5.07%
15,Cn1nc(C(=O)N(Cc2ccco2)CC2CCCO2)c2c1-c1ccccc1SC2 (stereo not shown),-1.72%
16,CCOC(=O)c1cnc2c(C)ccc(Cl)c2c1O,0.189%
17,COc1ccc(-c2cc(C(=O)NCc3ccccn3)c3ccccc3n2)cc1OC,3.72%
18,COc1cc2ccccc2cc1C(=O)Nc1ccc(Cl)cn1,0.983%
19,CCc1ccc(/C=c2/sc3nnc(-c4ccccc4)n3c2=O)cc1,-3.74%
20,Cc1nc(-n2cccc2)sc1C(=O)NCCCN1CCOCC1,1.03%
21,CN1CCC(N(C)Cc2cc(F)ccc2F)CC1,-6%
22,CC(C)c1ccc(C(=O)N2CCN(c3ccc(F)cc3)CC2)cc1,-3.26%
23,O=C(CCc1nnc2n(Cc3ccccc3)c(=O)c3ccccc3n12)N1CCC(N2CCCCC2)CC1,4.16%
24,CCOC(=O)c1cc2c3c(c1)C1C=CCC1C(c1ccccc1)N3CC1CC=CC21 (stereo not shown),16.7%
